Source: US20250019440A1 (Zymeworks, published 2025)

T1: Human PD-L2 (human, UniProt Q9BQ51 20-219)
T1 construct: Amine-coupled to a CM5 chip for SPR; also called recombinant PD-L2
T1 sequence (looked up): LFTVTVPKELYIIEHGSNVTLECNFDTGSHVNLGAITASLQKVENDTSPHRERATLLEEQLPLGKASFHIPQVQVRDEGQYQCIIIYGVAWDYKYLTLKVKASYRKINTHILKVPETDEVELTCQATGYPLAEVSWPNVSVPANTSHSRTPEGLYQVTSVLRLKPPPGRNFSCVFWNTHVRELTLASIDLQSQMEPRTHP

B1: v38410 (other)
heavy 1: EVQLVESGGGLVQPGGSLRLSCAASGVTFNYYGMSWIRQAPGKGLEWVASITSSGGRIYYPDSVKGRFTISRENTQKTLYLQMNSLRAEDTAVYYCTLDGRDGWVAYWGQGTLVTVSSASTKGPSVFPLAPSSKSTSGGTAALGCLVKDYFPEPVTVSWNSGALTSGVHTFPAVLQSSGLYSLSSVVTVPSSSLGTQTYICNVNHKPSNTKVDKKVEPKSCDKTHTCPPCPAPEAAGGPSVFLFPPKPKDTLMISRTPEVTCVVVSVSHEDPEVKFNWYVDGVEVHNAKTKPREEQYNSTYRVVSVLTVLHQDWLNGKEYKCKVSNKALPAPIEKTISKAKGQPREPQVYVYPPSRDELTKNQVSLTCLVKGFYPSDIAVEWESNGQPENNYKTTPPVLDSDGSFALVSKLTVDKSRWQQGNVFSCSVMHEALHNHYTQKSLSLSPGGGG[about 120 residues not shown]
light: NFMLTQPHSVSESPGKTVTISCKRNTGNIGSNYVNWYQQHEGSSPTTIIYRNDKRPDGVSDRFSGSIDRSSKSASLTISNLKTEDEADYFCQSYSSGFIFGGGTKLTVLGQPKAAPSVTLFPPSSEELQANKATLVCLISDFYPGAVTVAWKADSSPVKAGVETTTPSKQSNNKYAASSYLSLTPEQWKSHRSYSCQVTHEGSTVEKTVAPTECS
heavy 2: QVQLVESGGGLVQPGGSLRLSCSVSGIDLSSNPMIWVRQAPGKGLQYIGIIDTDGSTYYADWAKGRFTISKDSTTVYLQINSPRAEDTAVYYCARRLHGSSNGYYDDLWGQGTLVTVSSGGGGSGGGGSGGGGSGGGGSDGQMTQSPSSVSASVGDRVTITCQASQSIYSYLSWYQQKPGQRPKLLIYKASTLASGVPSRFSGSGSGTDFTLTISSVQPEDFATYYCQQGYTVTNVDKNTFGGGTKVEIKAAEPKSSDKTHTCPPCPAPEAAGGPSVFLFPPKPKDTLMISRTPEVTCVVVSVSHEDPEVKFNWYVDGVEVHNAKTKPREEQYNSTYRVVSVLTVLHQDWLNGKEYKCKVSNKALPAPIEKTISKAKGQPREPQVYVLPPSRDELTKNQVSLLCLVKGFYPSDIAVEWESNGQPENNYLTWPPVLDSDGSFFLYSKLTVDKSRWQQGNVFSCSVMHEALHNHYTQKSLSLSPG
B2: v38921 (other)
heavy 1: DIQMTQSPSSLSASVGDRVTITCSASSSVSYMHWYQQKSGKAPKLLIYDTSKLASGVPSRFSGSGSGTDFTLTISSLQPEDFATYYCQQWSGYPLTFGQGTKLEIKGGGGSGGGGSGGGGSGGGGSQVQLVQSGAEVKKPGASVKVSCKASGYSFTGYTMNWVRQAPGQGLEWMGLITPYNGASSYNQKFRGKATMTVDTSTSTVYMELSSLRSEDTAVYYCARGGYDGRGFDYWGQGTLVTVSSGGGGSGEVQLVESGGGLVQPGGSLRLSCAASGVTFNYYGMSWIRQAPGKGLEWVASITSSGGRIYYPDSVKGRFTISRENTQKTLYLQMNSLRAEDTAVYYCTLDGRDGWVAYWGQGTLVTVSSASTKGPSVFPLAPSSKSTSGGTAALGCLVKDYFPEPVTVSWNSGALTSGVHTFPAVLQSSGLYSLSSVVTVPSSSLGTQTYICNVNHKPSNTKVDKK[human IgG1 Fc with changes not shown]
light: B1 light
heavy 2: DIQMTQSPSSLSASVGDRVTITCSASSSVSYMHWYQQKSGKAPKLLIYDTSKLASGVPSRFSGSGSGTDFTLTISSLQPEDFATYYCQQWSGYPLTFGQGTKLEIKGGGGSGGGGSGGGGSGGGGSQVQLVQSGAEVKKPGASVKVSCKASGYSFTGYTMNWVRQAPGQGLEWMGLITPYNGASSYNQKFRGKATMTVDTSTSTVYMELSSLRSEDTAVYYCARGGYDGRGFDYWGQGTLVTVSSAAEPKSSDKTHTCPPCPAPEAAGGPSVFLFPPKPKDTLMISRTPEVTCVVVSVSHEDPEVKFNWYVDGVEVHNAKTKPREEQYNSTYRVVSVLTVLHQDWLNGKEYKCKVSNKALPAPIEKTISKAKGQPREPQVYVLPPSRDELTKNQVSLLCLVKGFYPSDIAVEWESNGQPENNYLTWPPVLDSDGSFFLYSKLTVDKSRWQQGNVFSCSVMHEALHNHYTQKSLSLSPGGGGGSGDRPWNPPTFSPALLVVTEGDNATFTCSFSNTSESFVLNWYRMSPSNQTDKLAAFPEDRSQPGQDARFRVTQLPNGRDFHMSVVRARRNDSGTYLCGAISLAPKLQIKESLRAELRVTE
B3: v38918 (other)
heavy 1: DIQMTQSPSSLSASVGDRVTITCSASSSVSYMHWYQQKSGKAPKLLIYDTSKLASGVPSRFSGSGSGTDFTLTISSLQPEDFATYYCQQWSGYPLTFGQGTKLEIKGGGGSGGGGSGGGGSGGGGSQVQLVQSGAEVKKPGASVKVSCKASGYSFTGYTMNWVRQAPGQGLEWMGLITPYNGASSYNQKFRGKATMTVDTSTSTVYMELSSLRSEDTAVYYCARGGYDGRGFDYWGQGTLVTVSSGGGGSGEVQLVESGGGLVQPGGSLRLSCAASGVTFNYYGMSWIRQAPGKGLEWVASITSSGGRIYYPDSVKGRFTISRENTQKTLYLQMNSLRAEDTAVYYCTLDGRDGWVAYWGQGTLVTVSSASTKGPSVFPLAPSSKSTSGGTAALGCLVKDYFPEPVTVSWNSGALTSGVHTFPAVLQSSGLYSLSSVVTVPSSSLGTQTYICNVNHKPSNTKVDKK[human IgG1 Fc with changes not shown]
light: B1 light
heavy 2: NPPTFSPALLVVTEGDNATFTCSFSNTSESFVLNWYRMSPSNQTDKLAAFPEDRSQPGQDARFRVTQLPNGRDFHMSVVRARRNDSGTYLCGAISLAPKAQIKESLRAELRVTEGGGGSGDIQMTQSPSSLSASVGDRVTITCSASSSVSYMHWYQQKSGKAPKLLIYDTSKLASGVPSRFSGSGSGTDFTLTISSLQPEDFATYYCQQWSGYPLTFGQGTKLEIKGGGGSGGGGSGGGGSGGGGSQVQLVQSGAEVKKPGASVKVSCKASGYSFTGYTMNWVRQAPGQGLEWMGLITPYNGASSYNQKFRGKATMTVDTSTSTVYMELSSLRSEDTAVYYCARGGYDGRGFDYWGQGTLVTVSSAAEPKSSDKTHTCPPCPAPEAAGGPSVFLFPPKPKDTLMISRTPEVTCVVVSVSHEDPEVKFNWYVDGVEVHNAKTKPREEQYNSTYRVVSVLTVLHQDWLNGKEYKCKVSNKALPAPIEKTISKAKGQPREPQVYVLPPSRDELTKNQVSLLCLVKGFYPSDIAVEWESNGQPENNYLTWPPVLDSDGSFFLYSKLTVDKSRWQQGNVFSCSVMHEALHNHYTQKSLSLSPG
B4: v38450 (other)
heavy 1: DIQMTQSPSSLSASVGDRVTITCSASSSVSYMHWYQQKSGKAPKLLIYDTSKLASGVPSRFSGSGSGTDFTLTISSLQPEDFATYYCQQWSGYPLTFGQGTKLEIKGGGGSGGGGSGGGGSGGGGSQVQLVQSGAEVKKPGASVKVSCKASGYSFTGYTMNWVRQAPGQGLEWMGLITPYNGASSYNQKFRGKATMTVDTSTSTVYMELSSLRSEDTAVYYCARGGYDGRGFDYWGQGTLVTVSSGGGGSGEVQLVESGGGLVQPGGSLRLSCAASGVTFNYYGMSWIRQAPGKGLEWVASITSSGGRIYYPDSVKGRFTISRENTQKTLYLQMNSLRAEDTAVYYCTLDGRDGWVAYWGQGTLVTVSSASTKGPSVFPLAPSSKSTSGGTAALGCLVKDYFPEPVTVSWNSGALTSGVHTFPAVLQSSGLYSLSSVVTVPSSSLGTQTYICNVNHKPSNTKVDKK[human IgG1 Fc with changes not shown]
light: B1 light
heavy 2: DIQMTQSPSSLSASVGDRVTITCSASSSVSYMHWYQQKSGKAPKLLIYDTSKLASGVPSRFSGSGSGTDFTLTISSLQPEDFATYYCQQWSGYPLTFGQGTKLEIKGGGGSGGGGSGGGGSGGGGSQVQLVQSGAEVKKPGASVKVSCKASGYSFTGYTMNWVRQAPGQGLEWMGLITPYNGASSYNQKFRGKATMTVDTSTSTVYMELSSLRSEDTAVYYCARGGYDGRGFDYWGQGTLVTVSSAAEPKSSDKTHTCPPCPAPEAAGGPSVFLFPPKPKDTLMISRTPEVTCVVVSVSHEDPEVKFNWYVDGVEVHNAKTKPREEQYNSTYRVVSVLTVLHQDWLNGKEYKCKVSNKALPAPIEKTISKAKGQPREPQVYVLPPSRDELTKNQVSLLCLVKGFYPSDIAVEWESNGQPENNYLTWPPVLDSDGSFFLYSKLTVDKSRWQQGNVFSCSVMHEALHNHYTQKSLSLSPGGGG[about 120 residues not shown]
B5: v38409 (other)
heavy 1: [about 120 residues not shown]GGGSGQVQLVESGGGLVQPGGSLRLSCSVSGIDLSSNPMIWVRQAPGKGLQYIGIIDTDGSTYYADWAKGRFTISKDSTTVYLQINSPRAEDTAVYYCARRLHGSSNGYYDDLWGQGTLVTVSSASTKGPSVFPLAPSSKSTSGGTAALGCLVKDYFPEPVTVSWNSGALTSGVHTFPAVLQSSGLYSLSSVVTVPSSSLGTQTYICNVNHKPSNTKVDKKVEPKSCDKTHTCPPCPAPEAAGGPSVFLFPPKPKDTLMISRTPEVTCVVVSVSHEDPEVKFNWYVDGVEVHNAKTKPREEQYNSTYRVVSVLTVLHQDWLNGKEYKCKVSNKALPAPIEKTISKAKGQPREPQVYVLPPSRDELTKNQVSLLCLVKGFYPSDIAVEWESNGQPENNYLTWPPVLDSDGSFFLYSKLTVDKSRWQQGNVFSCSVMHEALHNHYTQKSLSLSPG
light: DGQMTQSPSSVSASVGDRVTITCQASQSIYSYLSWYQQKPGQRPKLLIYKASTLASGVPSRFSGSGSGTDFTLTISSVQPEDFATYYCQQGYTVTNVDKNTFGGGTKVEIKRTVAAPSVFIFPPSDEQLKSGTASVVCLLNNFYPREAKVQWKVDNALQSGNSQESVTEQDSKDSTYSLSSTLTLSKADYEKHKVYACEVTHQGLSSPVTKSFNRGEC
heavy 2: EVQLVESGGGLVQPGGSLRLSCAASGVTFNYYGMSWIRQAPGKGLEWVASITSSGGRIYYPDSVKGRFTISRENTQKTLYLQMNSLRAEDTAVYYCTLDGRDGWVAYWGQGTLVTVSSGGGGSGGGGSGGGGSGGGGSNFMLTQPHSVSESPGKTVTISCKRNTGNIGSNYVNWYQQHEGSSPTTIIYRNDKRPDGVSDRFSGSIDRSSKSASLTISNLKTEDEADYFCQSYSSGFIFGGGTKLTVLA[human IgG1 Fc with changes not shown]

What was measured:
[1] = biological target: PD-L1 on cells (UniProt Q9NZQ7); test: cell-based or functional assay
[2] = biological target: T1, Human PD-L2; test: SPR, PD-L2 amine-coupled, variant as analyte
[3] = biological target: Human CD3 (recombinant) (human); test: SPR, CD3 amine-coupled, variant as analyte, 1:1 model
[4] = biological target: T2, Human PD-L1 (human, UniProt Q9NZQ7 fragment); test: SPR, PD-L1 amine-coupled, variant as analyte, 1:1 model
T2 construct: Amine-coupled to a CM5 chip for SPR; also called recombinant human PD-L1

[5] = biological target: T2, Human PD-L1; test: SPR, PD-L1 amine-coupled, variant as analyte, 1:1 model; first of three variants in the merged cell (HAC PD-1)
T2 sequence (Q9NZQ7 19-239 limits assumed): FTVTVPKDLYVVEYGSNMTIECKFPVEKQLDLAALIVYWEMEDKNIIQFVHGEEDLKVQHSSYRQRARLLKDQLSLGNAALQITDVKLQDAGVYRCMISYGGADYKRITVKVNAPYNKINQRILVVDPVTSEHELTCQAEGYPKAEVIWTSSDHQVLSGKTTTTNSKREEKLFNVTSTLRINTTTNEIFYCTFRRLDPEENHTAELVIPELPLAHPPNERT

[6] = biological target: T1, Human PD-L2; test: SPR, PD-L2 amine-coupled, variant as analyte, 1:1 model
[7] = biological target: Human CD3 (recombinant) (human); test: SPR, CD3 amine-coupled, variant as analyte, 1:1 model; remark: listed apart in the source
[8] = biological target: T2, Human PD-L1; test: SPR, PD-L1 amine-coupled, variant as analyte, 1:1 model; remark: listed apart in the source
[9] = biological target: T3, Human mesothelin (human, UniProt Q13421 296-580, limits assumed); test: SPR, mesothelin amine-coupled; apparent KD, variant binds mesothelin bivalently but was fit 1:1
T3 construct: Amine-coupled to a CM5 chip for SPR; also called MSLN; recombinant human mesothelin
T3 sequence (Q13421 other isoform, or with tags, fused parts or gaps limits assumed): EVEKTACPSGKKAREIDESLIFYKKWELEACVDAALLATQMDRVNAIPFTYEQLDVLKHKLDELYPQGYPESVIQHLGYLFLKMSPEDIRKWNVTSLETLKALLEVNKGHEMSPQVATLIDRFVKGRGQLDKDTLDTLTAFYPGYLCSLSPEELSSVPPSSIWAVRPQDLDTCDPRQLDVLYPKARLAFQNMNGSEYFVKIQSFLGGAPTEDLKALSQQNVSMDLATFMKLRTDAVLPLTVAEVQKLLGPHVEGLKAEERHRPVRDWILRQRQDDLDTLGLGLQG

[10] = biological target: T2, Human PD-L1; test: SPR, PD-L1 amine-coupled, variant as analyte, 1:1 model; remark: listed apart in the source
[11] = biological target: T4, Mouse PD-L1 (mouse, UniProt Q9EP73 fragment, limits assumed); test: as above
T4 construct: Amine-coupled to a CM5 chip for SPR; also called recombinant mouse PD-L1
T4 sequence (Q9EP73 19-238 limits assumed): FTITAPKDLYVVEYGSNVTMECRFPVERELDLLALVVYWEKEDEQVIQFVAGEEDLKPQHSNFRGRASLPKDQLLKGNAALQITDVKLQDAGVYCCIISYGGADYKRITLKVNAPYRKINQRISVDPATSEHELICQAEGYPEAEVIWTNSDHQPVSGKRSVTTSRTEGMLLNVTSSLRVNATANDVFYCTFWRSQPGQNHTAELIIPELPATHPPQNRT

[12] = biological target: T5, Cynomolgus monkey PD-L1 (cynomolgus monkey, UniProt G7PSE7 19-239); test: as above
T5 construct: Amine-coupled to a CM5 chip for SPR; also called recombinant cynomolgus monkey PD-L1
T5 sequence (G7PSE7 entry or part of it): as the sequence (Q9NZQ7 19-239 limits assumed) above, with A33T, A34S, S62N, R68Q, Q82R, F173L, T185A, T192I, H215L counted along it

| Binder | binding result [2] | Kd [3] | Kd [4] | Kd [5] | Kd [6] | also measured |
| --- | --- | --- | --- | --- | --- | --- |
| B1 | no binding (tested: 7.17-500 nM) | 45 nM | 3.2 nM | 9.3 nM | – | EC50 (read off the curve); hybrid PD-1/PD-L1 reporter gene assay, delta RLU, PD-1+ Jurkat T cells with SNU-620 cells, bottom left graph; composite signal of CD3 engagement and PD-1:PD-L1 blockade [1]: ~0.01 nM |
| B2 | – | – | 420 nM | – | 240 nM | – |
| B3 | – | – | 1400 nM | – | 670 nM | – |
| B4 | no binding (tested: 7.17-500 nM) | – | 31 nM | – | – | Kd [7]: 40 nM; Kd [8]: 6.7 nM; Kd [9]: 0.12 nM |
| B5 | – | 40 nM | – | 6.5 nM | – | Kd [10]: 3.2 nM; Kd [11]: 13 nM; Kd [12]: 5.6 nM |

Like-named read-outs stand apart in the source and are kept apart here.
